Experiment [1] has as its target ovine LH (oLH) (ovine). The experiment in a line: ELISA saturation binding, one site-specific binding fit in GraphPad Prism (estimate). On the procedure: (§1) The specificity of the antibodies and of the scFv thereof was studied by the ELISA technique. Each hormone evaluated was prepared at the concentration of 10 μg/ml in a 0.1M sodium carbonate buffer, pH 9.6, and distributed in a proportion of 100 μl per well on an ELISA plate. The adsorption time was 18 hours at +4° C. After five washes, the wells were treated with 100 μl of PBS supplemented with 0.1% Tween and 1% BSA for 45 minutes at 37° C., then each antibody or scFv was distributed in a proportion of 100 μl/well and incubated for one hour at 37° C. On each hormone evaluated, the antibodies and the scFvs were distributed at various concentrations according to a range of 10 to 250 μg/ml for the antibodies and of 10 to 150 or 200 μg/ml for the scFvs.

The target in experiment [2] is porcine LH (pLH) (porcine). Described as above. As to the method:
as §1

The target in experiment [3] is bovine LH (bLH) (bovine). The description is as above. On the procedure:
as §1

The target of experiment [4] is T1, equine chorionic gonadotropin (eCG) (equine).
T1 construct: mature; Alpha/beta dimer
The description is as above. On the procedure: as §1

Experiment [5] has as its target ovine FSH (oFSH) (ovine). The description is as above. As to the method: as §1
Experiment [6] concerns the target ovine LH (oLH) (ovine). The experiment in a line: ELISA, hormone adsorbed on the plate, scFv titrated, anti-His HRP; (A/B)x100 relative to oFSH. On the procedure:
as §1
(§2) After five washes, a secondary antibody coupled to peroxidase (HRP) was distributed in a proportion of 100 μl/well and incubated for one hour at 37° C. […] For the scFvs, an anti-His Tag HRP (Ref. R93125 Life Technologies, France) was used. […] After the reaction had been stopped with 1M H₂SO₄ (50 μl/well), the strength of the colored reaction (optical density) was measured using a spectrophotometer for ELISA plates.
(§3) The percentage of cross reaction was calculated conventionally by comparing the dose-response curves obtained with the concentration range of the antibody or of the scFv.
For orientation: In an ELISA, binding on a coated surface is turned into a signal by an enzyme label.

For experiment [7], the target named is porcine LH (pLH) (porcine). The experiment is described as above. As to the method: as §1, §2, §3
The target in experiment [8] is bovine LH (bLH) (bovine). The description is as above. As to the method: as §1, §2, §3

B1: CA5 scFv (scFv)
scFv: QVQLQQSGGGLVQPGGSLRLSCATSGFTFSDFYMEWVRQPPGKRLEWIAASRNKAKDYTTEYSASVKGRFIVSRDTSQSILYLQMNALRAEDTAIYFCARDARFAYWGQGTLVTVSAGGGGSGGGGSGGGGSDIQMTQTPSSLAVSVGEEITMS[about 80 residues omitted]FGGGTKLEIKHHHHHH
notes: VH-(Gly4Ser)3-VL-His6, made in the E. coli periplasm; also called scFv derived from the CA5 antibody
For B1, the Kd – broadly, the concentration at which binding is half-saturated – in experiment [1] was 1950 nM; in experiment [2] it was 2470 nM; in experiment [3] it was 2430 nM; in experiment [4], 4070 nM; in experiment [5], 540 nM. Further, the cross reaction in experiment [6] is 25%; in experiment [7], 29%; in experiment [8], 33%.

Source of the values: patent US20170190774A1 (REPROPHARM, published 2017).
